The campaign covered roughly 120,000 compounds. About 5,300 (4.4%) were called active. The inconclusive results got no clear call from the source; some entries with a clear call stand among them for comparison. The call rests on the fitted dose curve; in most records, active means well fitted inhibition curve with a large enough effect; inconclusive means small, poorly fitted or top-dose-only effect; inactive means no such curve, though single readings can be large or run the other way. Where the call is inconclusive, the potency comes from a doubtful curve fit.
Test: qHTS Primary assay for Inhibitors of Plasmodium falciparum Dd2 growth in vitro; further: nearly all actives have a fitted effect of over 65% in size
Conditions: P. falciparum Dd2 growth, SYBR Green, 72 h; series mostly up to 28.9 µM
Procedure, shortened: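 Readout: SYBR Green fluorescence, 485 nm excitation, 535 nm emission, after ~16 h lysis at 37C. Before that, Dd2-infected red cells (2.5% hematocrit) grew 72 h with compound, 29 uM top final concentration.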
Potency means the concentration at half of the fitted maximal effect; tags describe the fitted curve by direction and shape.

Compound	Potency
CCOc1cccc(NC(=O)CSc2ncc(-c3ccc(Cl)cc3)[nH]2)c1	inconclusive: 14.1 µM [inhibitor, partial curve, poor fit]
CN1C(=O)c2cccn2CC1CNC(=O)c1cc(-c2ccc(F)cc2)n[nH]1 (centres undefined)	inactive
CCN1C(C(=O)c2ccccc2)=C(OC(=O)c2ccc(Cl)cc2)c2ccccc2S1(=O)=O	inconclusive: 17.8 µM [inhibitor, single point]
CCc1ccc2oc(-c3cccc(NC(=O)c4ccc(-c5cccc([N+](=O)[O-])c5)o4)c3)nc2c1	active: 2 µM
Cc1ccc(C(=O)N2CCCC3(C2)NC(=O)N(Cc2ccc(Cl)cc2)C3=O)cc1F (centres undefined)	inconclusive: 11.2 µM [inhibitor, single point]
O=c1ccc(CN2CCN(c3ccccc3F)CC2)cn1CC1CC1	inactive
CCOc1ccc(NCc2cccn2-c2nnc(N3CCC(C(=O)NC(C)c4ccccc4)CC3)s2)cc1 (centres undefined)	inactive
COc1ccc(-c2cc(C(F)(F)F)nc(NCc3ccccc3)n2)cc1OC	inconclusive: 8.91 µM [inhibitor, single point]
COc1cccc(CN2c3ccccc3-c3nc(SCC(=O)Nc4cccc(C)c4)ncc3S2(=O)=O)c1	inconclusive: 10 µM [inhibitor, single point]
CCOc1ccc(CC(=O)N2CCC(n3cc(-c4nc(-c5ccccc5)no4)nn3)C2)cc1 (centres undefined)	inactive
O=C(NCc1nnc2ccc(-c3ccc(Cl)cc3)nn12)c1cccc(Cl)c1	inactive
O=C(CC[C@@H]1CNC(=O)[C@@H]2C[C@H](NS(=O)(=O)c3cccs3)CN12)NC1CC1	inactive
CCOc1ccc(-n2c(-c3ccc(OC)cc3)cc3c2CC(C)(C)CC3=O)cc1	inactive
O=C1COCC2(CN1Cc1cccc(OC(F)(F)F)c1)CN(c1ccccn1)C2	inactive
CCOCC1(C)COc2ccc(C(=O)Nc3cccc(OC)c3)cc2N1 (centres undefined)	inconclusive: 12.6 µM [inhibitor, partial curve, poor fit]
CN(Cc1cccc2ccccc12)C1CCc2ccccc21 (centres undefined)	inconclusive: 15.8 µM [inhibitor, single point]
CCOc1ccc(CC(=O)N2CCC(Oc3nccnc3N(C)C)C2)cc1 (centres undefined)	inactive
O=C1Nc2ccccc2CC12CCN2[S+](=O)([O-])c1ccccc1 (centres undefined)	inconclusive: 31.6 µM [inhibitor, single point]
CC(C)NC(=O)c1nc(C(C)(C)C)c2cnccn12	inconclusive: 7.94 µM [inhibitor, partial curve, poor fit]
CC1=C[C@@H](CN2CCN(c3ncccn3)CC2)[C@H](C(C)C)C[C@H]1Cc1nnc(-c2ccc(N(C)C)cc2)o1	inconclusive: 2.51 µM [inhibitor, partial curve]
CCOC(=O)c1ccc(-c2ccc(/C=C(\C#N)C(=O)Nc3cccc(C)c3)o2)cc1	inactive
O=C(CSc1c2c(nc3ccc(Cl)cc13)CCCC2)N1CCN(c2ccc(Cl)cc2)CC1	inconclusive: 10 µM [inhibitor, single point]

Compound	Potency
CC(=O)NC1CCN(Cc2cn(-c3ccccc3F)nc2-c2cc(C)sc2C)C1 (centres undefined)	inconclusive: 3.98 µM [inhibitor, partial curve]
c1ccc(-c2cc3c(cn2)CN(Cc2ccc4[nH]ccc4c2)CCN3)cc1	active: 6.31 µM
O=C(Nc1ccc2c(N3CCCCC3)ncnc2c1)c1ccccc1C(F)(F)F	active: 11.2 µM
Cc1ccc(-c2nnc(Nc3cccc(Br)c3)c3ccccc23)cc1S(=O)(=O)N1CCN(C)CC1	active: 7.94 µM
O=C(Nc1ccccc1)c1cc2c(-c3ccccc3)nn(-c3ccccc3)c2s1	inconclusive: 0.891 µM [inhibitor, full curve, poor fit]
O=C(NC1CCCN(c2cc(-c3ccc(F)cc3)[nH]n2)C1)c1ccc2cc[nH]c2c1 (centres undefined)	inconclusive: 3.98 µM [inhibitor, single point]
COc1ccc(-c2nc3cc(C)ccc3cc2CN2CCCC(C#N)C2)cc1OC (centres undefined)	inconclusive: 12.6 µM [inhibitor, partial curve, poor fit]
O=C1CC(c2ccccc2)N(C(=O)C2CC2)CCCN(C(=O)NCCc2ccccc2)CCN1 (centres undefined)	inconclusive: 20 µM [inhibitor, single point]
CS(=O)(=O)N1CCC2(CC1)CC(=O)N(CCCc1ccccc1)C2	inactive
CNCc1ccccc1OC(F)(F)F	inactive
CCN1C(=O)CCN(S(C)(=O)=O)CC12CCOCC2	inactive
CCc1noc(-c2nc(-c3ccc(OC)cc3OC)no2)n1	inconclusive: 17.8 µM [inhibitor, single point]
O=C(Nc1ccc(Br)cc1)Nc1nc2c(s1)CCCCCC2	inconclusive: 17.8 µM [inhibitor, single point]
COC[C@@H]1CN(C(=O)c2cc(C3CC3)[nH]n2)C[C@H]1c1ccccn1	inactive
CC(=O)N[C@H]1CO[C@H]2[C@@H]1OC[C@H]2OCC(N)=O	inactive
CN(Cc1ccccc1C(F)(F)F)C(=O)Cc1ccccn1	inconclusive: 31.6 µM [inhibitor, single point]
CCn1cc2nc(SCc3c(F)cccc3Cl)n(CCc3ccccc3)c(=O)c2n1	inconclusive: 17.8 µM [inhibitor, single point]
COc1ccc(Cc2nc3nccc(-c4ccsc4)n3n2)cc1	inconclusive: 17.8 µM [inhibitor, single point]
COc1ccc(OC)c(NC(=O)C(Cc2ccccc2)NS(=O)(=O)c2ccc3c(c2)CCC(=O)N3)c1 (centres undefined)	inconclusive: 17.8 µM [inhibitor, single point]
CCCC(=O)Nc1ccc2nc(SCCOc3ccccc3)sc2c1	inconclusive: 7.94 µM [inhibitor, partial curve]
CC1(Cc2ccc3c(c2)OCO3)CCCN(C(=O)c2cncc(Cl)c2)C1 (centres undefined)	inconclusive: 11.2 µM [inhibitor, partial curve]
Cc1cccc(NC(=O)C(=O)NCC(c2cccnc2)N2CCN(Cc3ccccc3)CC2)c1 (centres undefined)	active: 7.94 µM
